Reference: the supplement of paper PMC6089552
Screen size: about 3,200 compounds; about 300 (9.4%) showed activity. The list shows a part of the results, in another mix than the full data.

Tested on: A673/TR/shEF
Experiment: cell viability (LOESS-normalised, relative to median of negative controls) (log2 ratio); higher = more viable cells (less compound effect), active = hit call of the paper (over 3 MAD below the median)
Conditions: treatment time: 72 h
Method in brief: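 For three days, A673/TR/shEF Ewing sarcoma cells in 384-well plates (1,500 per well) were treated with library compounds at two or more concentrations or with DMSO controls, after doxycycline had been added or withheld 24 h beforehand to induce EWS-FLI1 shRNA knockdown. Viability was read by CellTiter-Glo luminescence on an Envision reader. The data were LOESS-corrected per plate, divided by the median of negative controls and log2-transformed.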

[1] = 0.103 µM, library screen: screen3, EWS-FLI1 expression: high (no doxycycline)
[2] = 0.103 µM, library screen: screen3, EWS-FLI1 expression: low (doxycycline-induced shRNA knockdown)
[3] = 0.308 µM, library screen: screen3, EWS-FLI1 expression: high (no doxycycline)
[4] = 0.308 µM, library screen: screen3, EWS-FLI1 expression: low (doxycycline-induced shRNA knockdown)
[5] = 0.926 µM, library screen: screen3, EWS-FLI1 expression: high (no doxycycline)
[6] = 0.926 µM, library screen: screen3, EWS-FLI1 expression: low (doxycycline-induced shRNA knockdown)
[7] = 2.8 µM, library screen: screen3, EWS-FLI1 expression: high (no doxycycline)
[8] = 2.8 µM, library screen: screen3, EWS-FLI1 expression: low (doxycycline-induced shRNA knockdown)
[9] = 8.3 µM, library screen: screen3, EWS-FLI1 expression: high (no doxycycline)
[10] = 8.3 µM, library screen: screen3, EWS-FLI1 expression: low (doxycycline-induced shRNA knockdown)
[11] = 25 µM, library screen: screen3, EWS-FLI1 expression: high (no doxycycline)
[12] = 25 µM, library screen: screen3, EWS-FLI1 expression: low (doxycycline-induced shRNA knockdown)
[13] = 0.25 µM, library screen: screen2, EWS-FLI1 expression: high (no doxycycline)
[14] = 0.25 µM, library screen: screen2, EWS-FLI1 expression: low (doxycycline-induced shRNA knockdown)
[15] = 2.5 µM, library screen: screen2, EWS-FLI1 expression: high (no doxycycline)
[16] = 2.5 µM, library screen: screen2, EWS-FLI1 expression: low (doxycycline-induced shRNA knockdown)
[17] = 0.25 µM, library screen: screen1, EWS-FLI1 expression: high (no doxycycline)
[18] = 0.25 µM, library screen: screen1, EWS-FLI1 expression: low (doxycycline-induced shRNA knockdown)
[19] = 2.5 µM, library screen: screen1, EWS-FLI1 expression: high (no doxycycline)
[20] = 2.5 µM, library screen: screen1, EWS-FLI1 expression: low (doxycycline-induced shRNA knockdown)

Measured: cell viability (log2)

O=C1[C@H](CC[C@H](O)c2ccc(F)cc2)[C@@H](c2ccc(O)cc2)N1c1ccc(F)cc1
inactive: [1] 0.0717 | [2] 0.0377 | [3] 0.134 | [4] 0.0223 | [5] 0.15 | [6] 0.1 | [7] 0.00285 | [8] 0.024 | [9] 0.0525 | [10] 0.101 | [11] 0.0671 | [12] 0.0699

COc1ccccc1N1CCN(CCCCNC(=O)c2ccc3ccccc3c2)CC1
inactive: [13] 0.175 | [14] 0.136 | [15] 0.169 | [16] 0.064

COCCn1c2c([n+](Cc3cnccn3)c1C)C(=O)c1ccccc1C2=O
active: [1] -3.94 | [2] -2.36 | [3] -3.88 | [4] -4.02 | [5] -3.96 | [6] -4.06 | [7] -4.31 | [8] -4.17 | [9] -4.31 | [10] -4.28 | [11] -4.31 | [12] -4.3

COC(=O)C1=C(C)NC(C)=C(C(=O)OCC(C)C)C1c1ccccc1[N+](=O)[O-] (stereo not given)
inactive: [1] -0.00484 | [2] 0.0168 | [3] 0.068 | [4] 0.0386 | [5] -0.0209 | [6] 0.0289 | [7] -0.00638 | [8] -0.00566 | [9] -0.0322 | [10] -0.00981 | [11] -0.0662 | [12] 0.00926

C=C[C@@]1(C)CC(=O)[C@@]2(O)[C@](C)(O1)[C@@H](OC(C)=O)[C@@H](O)C1C(C)(C)CC[C@H](O)[C@@]12C (stereo not given in full)
inactive: [17] 0.111 | [18] 0.0265 | [19] 0.101 | [20] 0.067

O=c1c2ccccc2oc2ccc(O)cc12
inactive: [17] 0.114 | [18] 0.0801 | [19] 0.127 | [20] 0.172

CC1(C)CNc2cc(NC(=O)c3cccnc3NCc3ccncc3)ccc21
inactive: [1] -0.0358 | [2] 0.0106 | [3] 0.0947 | [4] 0.00283 | [5] 0.0481 | [6] -0.0207 | [7] 0.0668 | [8] 0.00605 | [9] 0.0301 | [10] 0.0197 | [11] 0.0462 | [12] -0.0119

COC(=O)C1=C(C)NC(C)=C(C(=O)OCCN(C)Cc2ccccc2)C1c1cccc([N+](=O)[O-])c1 (stereo not given)
inactive: [17] 0.089 | [18] -0.0157 | [13] 0.176 | [14] 0.0824 | [19] 0.15 | [20] 0.113 | [15] 0.107 | [16] 0.0778

Cc1ccccc1CNc1ncnc2c1ncn2[C@@H]1O[C@H](CO)[C@@H](O)[C@H]1O
inactive: [13] 0.1 | [14] 0.0941 | [15] 0.078 | [16] 0.0169

CC(C)=CCc1c2c(c3occ(-c4ccc(O)cc4)c(=O)c3c1O)C=CC(C)(C)O2
inactive: [17] 0.124 | [18] 0.0204 | [19] 0.117 | [20] 0.17

CCCC(=O)[O-].[Na+]
inactive: [1] 0.124 | [2] 0.035 | [3] 0.185 | [4] 0.077 | [5] 0.111 | [6] 0.0755 | [7] 0.137 | [8] 0.0493 | [9] 0.102 | [10] 0.0943 | [11] 0.209 | [12] 0.0373

C[C@@H]1C/C=C/C=C/C=C/C=C/[C@H](OC2O[C@H](C)[C@@H](O)[C@H](N)[C@@H]2O)C[C@@H]2O[C@](O)(C[C@@H](O)C[C@H]3O[C@@H]3/C=C/C(=O)O1)C[C@H](O)[C@H]2C(=O)O (stereo not given in full)
inactive: [1] 0.0488 | [2] 0.0464 | [3] 0.0456 | [4] 0.0497 | [5] 0.0317 | [6] 0.0938 | [7] 0.0554 | [8] 0.0621 | [9] 0.0808 | [10] 0.0825 | [11] 0.128 | [12] 0.0916

Cc1ccccc1C(OCCN(C)C)c1ccccc1 (stereo not given)
inactive: [17] 0.0484 | [18] 0.00928 | [13] 0.208 | [14] 0.0643 | [19] 0.0897 | [20] 0.134 | [15] 0.102 | [16] 0.103

CN(C)CCOC(c1ccc(Cl)cc1)c1ccccn1 (stereo not given)
inactive: [17] 0.0635 | [18] 0.14 | [19] 0.162 | [20] 0.124

C[C@@H]1CC[C@@]23CCC4(C)[C@@](C=CC5[C@@]6(C)CCC(=O)C(C)(C)C6CC[C@]54C)(OC2=O)C3[C@H]1C (stereo not given in full)
inactive: [17] 0.12 | [18] 0.0225 | [19] 0.0629 | [20] 0.0141

NC(=O)NC1NC(=O)NC1=O (stereo not given)
inactive: [17] 0.0962 | [18] 0.0535 | [19] 0.134 | [20] 0.0535
